This note sets out measurements from article PMC5800298.

In one assay the target is T1, PmDAM3 (Prunus mume) (UniProt G1UE21).
T1 sequence: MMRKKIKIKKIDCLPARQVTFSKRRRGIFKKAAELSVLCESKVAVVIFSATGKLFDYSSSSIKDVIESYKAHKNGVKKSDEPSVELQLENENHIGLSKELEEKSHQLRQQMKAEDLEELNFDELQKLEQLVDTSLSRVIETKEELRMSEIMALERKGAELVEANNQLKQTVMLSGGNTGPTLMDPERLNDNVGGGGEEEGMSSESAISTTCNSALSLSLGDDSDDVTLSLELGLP
In words: two-hybrid; yeast two-hybrid; full-length PmDAMs in pGBKT7 (bait) and pGADT7 (prey); each interaction screened in triplicate; baits without auto-activation or toxicity.

In a further assay the target is T2, PmDAM5 (Prunus mume) (UniProt G1UE18).
T2 sequence: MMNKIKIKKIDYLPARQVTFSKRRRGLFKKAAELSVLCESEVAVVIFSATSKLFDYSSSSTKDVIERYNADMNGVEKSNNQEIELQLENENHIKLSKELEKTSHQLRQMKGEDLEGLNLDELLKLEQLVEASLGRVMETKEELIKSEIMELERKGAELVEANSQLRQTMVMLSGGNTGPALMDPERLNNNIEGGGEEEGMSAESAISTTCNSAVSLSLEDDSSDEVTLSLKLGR
Described as above.

In assay [1] the target is T3, PmDAM6-YFP^N / PmDAM6-YFP^C (Prunus mume) (UniProt B9A1S9).
T3 sequence: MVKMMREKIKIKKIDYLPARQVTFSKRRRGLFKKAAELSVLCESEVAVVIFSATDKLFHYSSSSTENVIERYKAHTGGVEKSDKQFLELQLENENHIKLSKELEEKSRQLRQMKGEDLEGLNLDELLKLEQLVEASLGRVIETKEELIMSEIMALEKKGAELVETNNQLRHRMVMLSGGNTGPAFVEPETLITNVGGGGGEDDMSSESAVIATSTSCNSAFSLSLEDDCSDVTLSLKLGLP
In words: split reporter; BiFC with YFP^N and YFP^C fusions co-expressed in N. benthamiana leaves by agroinfiltration; confocal microscopy 2 days after infiltration, YFP excited at 514 nm.

The target in assay [2] is T4, PmDAM5-YFP^N / PmDAM5-YFP^C (Prunus mume) (UniProt G1UE18).
T4 sequence: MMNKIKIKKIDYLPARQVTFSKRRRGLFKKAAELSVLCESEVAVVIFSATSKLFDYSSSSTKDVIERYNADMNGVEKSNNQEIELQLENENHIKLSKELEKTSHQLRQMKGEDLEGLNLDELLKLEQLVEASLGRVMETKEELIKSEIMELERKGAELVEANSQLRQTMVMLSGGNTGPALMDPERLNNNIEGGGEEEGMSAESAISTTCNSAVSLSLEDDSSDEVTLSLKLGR
The assay is described as above.

A further assay has as its target T5, PmDAM2 (Prunus mume) (UniProt G1UE20).
T5 sequence: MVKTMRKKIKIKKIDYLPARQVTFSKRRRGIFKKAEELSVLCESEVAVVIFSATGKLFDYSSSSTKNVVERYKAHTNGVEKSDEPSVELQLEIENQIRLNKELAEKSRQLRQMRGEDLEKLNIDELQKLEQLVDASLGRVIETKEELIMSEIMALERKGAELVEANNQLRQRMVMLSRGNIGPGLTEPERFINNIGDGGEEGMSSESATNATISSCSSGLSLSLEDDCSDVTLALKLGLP
In words: two-hybrid; yeast two-hybrid; full-length PmDAMs in pGBKT7 (bait) and pGADT7 (prey); each interaction screened in triplicate; baits without auto-activation or toxicity.

A further assay concerns the target T6, PmDAM6 (Prunus mume) (UniProt B9A1S9).
T6 sequence: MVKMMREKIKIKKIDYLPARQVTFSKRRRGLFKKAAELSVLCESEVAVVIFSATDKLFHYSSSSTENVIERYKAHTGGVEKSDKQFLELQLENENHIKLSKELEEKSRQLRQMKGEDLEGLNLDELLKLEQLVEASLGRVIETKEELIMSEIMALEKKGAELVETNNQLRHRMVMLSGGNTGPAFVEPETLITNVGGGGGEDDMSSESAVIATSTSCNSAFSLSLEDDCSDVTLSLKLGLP
The assay is described as above.

A further assay addresses PmDAM1 (Prunus mume) (UniProt G1UE19). The assay is described as above.
Assay [3] concerns the target PmDAM1-YFP^N / PmDAM1-YFP^C (Prunus mume) (UniProt G1UE19). Description: split reporter; BiFC with YFP^N and YFP^C fusions co-expressed in N. benthamiana leaves by agroinfiltration; confocal microscopy 2 days after infiltration, YFP excited at 514 nm.
Assay [4] addresses T7, PmDAM2-YFP^N / PmDAM2-YFP^C (Prunus mume) (UniProt G1UE20).
T7 sequence: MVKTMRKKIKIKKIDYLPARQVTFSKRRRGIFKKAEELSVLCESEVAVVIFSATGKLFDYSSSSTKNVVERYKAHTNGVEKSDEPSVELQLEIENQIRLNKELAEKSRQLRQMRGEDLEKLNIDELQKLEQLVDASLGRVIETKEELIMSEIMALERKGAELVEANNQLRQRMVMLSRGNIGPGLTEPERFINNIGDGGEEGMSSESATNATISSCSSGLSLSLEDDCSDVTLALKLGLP
The assay is described as above.

No constants are given. Whether binding was seen depends on the method and setting. For some of these results: In cells and extracts the contact can be indirect. Some entries that bind do so weakly or less than the wild type. For some of these results: Tags and fused reporters may be left off the sequences shown.

B1: PmDAM3 (protein, UniProt G1UE21 1-235)
chain: MMRKKIKIKKIDCLPARQVTFSKRRRGIFKKAAELSVLCESKVAVVIFSATGKLFDYSSSSIKDVIESYKAHKNGVKKSDEPSVELQLENENHIGLSKELEEKSHQLRQQMKAEDLEELNFDELQKLEQLVDTSLSRVIETKEELRMSEIMALERKGAELVEANNQLKQTVMLSGGNTGPTLMDPERLNDNVGGGGEEEGMSSESAISTTCNSALSLSLGDDSDDVTLSLELGLP
For the molecule B1, the binding entry with PmDAM3 (Prunus mume) and with PmDAM5 (Prunus mume) was “no binding” throughout.

B2: PmDAM2-YFP^N / PmDAM2-YFP^C (protein, UniProt G1UE20 1-240)
chain: MVKTMRKKIKIKKIDYLPARQVTFSKRRRGIFKKAEELSVLCESEVAVVIFSATGKLFDYSSSSTKNVVERYKAHTNGVEKSDEPSVELQLEIENQIRLNKELAEKSRQLRQMRGEDLEKLNIDELQKLEQLVDASLGRVIETKEELIMSEIMALERKGAELVEANNQLRQRMVMLSRGNIGPGLTEPERFINNIGDGGEEGMSSESATNATISSCSSGLSLSLEDDCSDVTLALKLGLP
As for B2, the binding entry in assay [1] and in assay [2] was “binds” each time.

B3: PmDAM2 (protein, UniProt G1UE20 1-240)
chain: MVKTMRKKIKIKKIDYLPARQVTFSKRRRGIFKKAEELSVLCESEVAVVIFSATGKLFDYSSSSTKNVVERYKAHTNGVEKSDEPSVELQLEIENQIRLNKELAEKSRQLRQMRGEDLEKLNIDELQKLEQLVDASLGRVIETKEELIMSEIMALERKGAELVEANNQLRQRMVMLSRGNIGPGLTEPERFINNIGDGGEEGMSSESATNATISSCSSGLSLSLEDDCSDVTLALKLGLP
Consider B3, for which the binding entry is “no binding” in the assay with PmDAM2 (Prunus mume), “binds weakly” with PmDAM6 (Prunus mume), “no binding” with PmDAM3 (Prunus mume) and “binds” in the assay with PmDAM5 (Prunus mume).

B4: PmDAM6-YFP^N / PmDAM6-YFP^C (protein, UniProt B9A1S9 1-241)
chain: MVKMMREKIKIKKIDYLPARQVTFSKRRRGLFKKAAELSVLCESEVAVVIFSATDKLFHYSSSSTENVIERYKAHTGGVEKSDKQFLELQLENENHIKLSKELEEKSRQLRQMKGEDLEGLNLDELLKLEQLVEASLGRVIETKEELIMSEIMALEKKGAELVETNNQLRHRMVMLSGGNTGPAFVEPETLITNVGGGGGEDDMSSESAVIATSTSCNSAFSLSLEDDCSDVTLSLKLGLP
Take B4: in assay [1], the binding result is recorded as “binds”.

B5: PmDAM6 (protein, UniProt B9A1S9 1-241)
chain: MVKMMREKIKIKKIDYLPARQVTFSKRRRGLFKKAAELSVLCESEVAVVIFSATDKLFHYSSSSTENVIERYKAHTGGVEKSDKQFLELQLENENHIKLSKELEEKSRQLRQMKGEDLEGLNLDELLKLEQLVEASLGRVIETKEELIMSEIMALEKKGAELVETNNQLRHRMVMLSGGNTGPAFVEPETLITNVGGGGGEDDMSSESAVIATSTSCNSAFSLSLEDDCSDVTLSLKLGLP
Consider B5, for which, in the assay with PmDAM6 (Prunus mume), the binding entry was “binds”.

B6: PmDAM5-YFP^N / PmDAM5-YFP^C (protein, UniProt G1UE18 1-234)
chain: MMNKIKIKKIDYLPARQVTFSKRRRGLFKKAAELSVLCESEVAVVIFSATSKLFDYSSSSTKDVIERYNADMNGVEKSNNQEIELQLENENHIKLSKELEKTSHQLRQMKGEDLEGLNLDELLKLEQLVEASLGRVMETKEELIKSEIMELERKGAELVEANSQLRQTMVMLSGGNTGPALMDPERLNNNIEGGGEEEGMSAESAISTTCNSAVSLSLEDDSSDEVTLSLKLGR
For the molecule B6, the binding result in [1] is given as “binds”.

B7: PmDAM5 (protein, UniProt G1UE18 1-234)
chain: MMNKIKIKKIDYLPARQVTFSKRRRGLFKKAAELSVLCESEVAVVIFSATSKLFDYSSSSTKDVIERYNADMNGVEKSNNQEIELQLENENHIKLSKELEKTSHQLRQMKGEDLEGLNLDELLKLEQLVEASLGRVMETKEELIKSEIMELERKGAELVEANSQLRQTMVMLSGGNTGPALMDPERLNNNIEGGGEEEGMSAESAISTTCNSAVSLSLEDDSSDEVTLSLKLGR
On to B7, for which the results for the binding entry with PmDAM6 (Prunus mume) and with PmDAM5 (Prunus mume) were “binds weakly” and “no binding”, respectively.

B8: PmDAM1 (protein, UniProt G1UE19 1-235)
chain: MKMMREKIKIKKIDNLPARQVTFSKRRRGIFKKAAELSVLCESEVAVVIFSATGKLFDYSSSSMKDVIERYQVHINGGEKFNERSIELQPEYENHIRLSKELKEKSRQLRQMKGEDLEELNFDELQKLEQLVDASLGRVIETKDERIMSEIMALERKRAELVKANKQLRQRMLFRGNIGPELMKPERLNNNFGGGGEEEGMSSESATSTTCNSAPSLSLEDDSDDVTLSLKLGLP
For B8, the binding result was “binds” with PmDAM2 (Prunus mume); “binds” with PmDAM6 (Prunus mume); “no binding” with PmDAM3 (Prunus mume); “binds” with PmDAM5 (Prunus mume); “binds” with PmDAM1 (Prunus mume).

B9: PmDAM1-YFP^N / PmDAM1-YFP^C (protein, UniProt G1UE19 1-235)
chain: MKMMREKIKIKKIDNLPARQVTFSKRRRGIFKKAAELSVLCESEVAVVIFSATGKLFDYSSSSMKDVIERYQVHINGGEKFNERSIELQPEYENHIRLSKELKEKSRQLRQMKGEDLEELNFDELQKLEQLVDASLGRVIETKDERIMSEIMALERKRAELVKANKQLRQRMLFRGNIGPELMKPERLNNNFGGGGEEEGMSSESATSTTCNSAPSLSLEDDSDDVTLSLKLGLP
On to B9, for which the binding entry in assay [3], in assay [1], in [4] and in [2] was “binds” throughout.
